# Experimental data: publication PMC12820563
# This is one part of the list. The list includes weakly bound sequences.
# Target: T1, MBP-FoxP3dN (UniProt Q99JB6)
# T1 sequence: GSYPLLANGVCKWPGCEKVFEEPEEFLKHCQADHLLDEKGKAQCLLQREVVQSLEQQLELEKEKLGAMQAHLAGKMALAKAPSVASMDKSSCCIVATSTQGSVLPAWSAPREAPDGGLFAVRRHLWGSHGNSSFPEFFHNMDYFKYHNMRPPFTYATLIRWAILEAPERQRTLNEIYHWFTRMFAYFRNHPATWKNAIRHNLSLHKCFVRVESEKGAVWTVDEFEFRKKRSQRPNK
# Assay: PD-seq (MBP pull-down with sequencing)
# Conditions: 20 mM Tris-HCl pH 7.5, 100 mM NaCl, 1.5 mM MgCl2, 0.4 uM protein, 0.1 uM dsDNA library, 30 min, room temperature, amylose pull-down; high values mean tight binding; double strand, one strand shown
row,Sequence,binding signal (RPM ratio (pull-down/input))
1,GATGATTGTTCTCCCAGCTGATGAATTTATTAGATCGAGTAAACAAATTTTCCTAATCTTTCTGTTCAAGCGCCATCTAC,0.562
2,GATGATTGTTCTCCCAGCTGATGAATTCGCATCATCGAGTAAACAAATTTTCCTAATCTTTCTGTTCAAGCGCCATCTAC,5.06
3,GATGATTGTTCTCCCAGCTGATGAATTCTCCGTATCGAGTAAACAAATTTTCCTAATCTTTCTGTTCAAGCGCCATCTAC,0.333
4,GATGATTGTTCTCCCAGCTGATGAATTTGAGCATTCGAGTAAACAAATTTTCCTAATCTTTCTGTTCAAGCGCCATCTAC,5.36
5,GATGATTGTTCTCCCAGCTGATGAATTTAACGCGTCGAGTAAACAAATTTTCCTAATCTTTCTGTTCAAGCGCCATCTAC,0.668
6,GATGATTGTTCTCCCAGCTGATGAATTTTGGTGTTCGAGTAAACAAATTTTCCTAATCTTTCTGTTCAAGCGCCATCTAC,1.57
7,GATGATTGTTCTCCCAGCTGATGAATTCTTTTTCTCGAGTAAACAAATTTTCCTAATCTTTCTGTTCAAGCGCCATCTAC,0.372
8,GATGATTGTTCTCCCAGCTGATGAATTCGTTTTCTCGAGTAAACAAATTTTCCTAATCTTTCTGTTCAAGCGCCATCTAC,3.3
9,GATGATTGTTCTCCCAGCTGATGAATTTTATCTATCGAGTAAACAAATTTTCCTAATCTTTCTGTTCAAGCGCCATCTAC,0.962
10,GATGATTGTTCTCCCAGCTGATGAATTGTGGACCTCGAGTAAACAAATTTTCCTAATCTTTCTGTTCAAGCGCCATCTAC,0.571
11,GATGATTGTTCTCCCAGCTGATGAATTGGTCAACTCGAGTAAACAAATTTTCCTAATCTTTCTGTTCAAGCGCCATCTAC,0.465
12,GATGATTGTTCTCCCAGCTGATGAATTGACTGGATCGAGTAAACAAATTTTCCTAATCTTTCTGTTCAAGCGCCATCTAC,0.214
13,GATGATTGTTCTCCCAGCTGATGAATTATTGCTTTCGAGTAAACAAATTTTCCTAATCTTTCTGTTCAAGCGCCATCTAC,1.29
14,GATGATTGTTCTCCCAGCTGATGAATTCAAACGTTCGAGTAAACAAATTTTCCTAATCTTTCTGTTCAAGCGCCATCTAC,0.34
15,GATGATTGTTCTCCCAGCTGATGAATTCCTCCGATCGAGTAAACAAATTTTCCTAATCTTTCTGTTCAAGCGCCATCTAC,0.188
16,GATGATTGTTCTCCCAGCTGATGAATTTAGACGCTCGAGTAAACAAATTTTCCTAATCTTTCTGTTCAAGCGCCATCTAC,0.561
17,GATGATTGTTCTCCCAGCTGATGAATTTTCGGCTTCGAGTAAACAAATTTTCCTAATCTTTCTGTTCAAGCGCCATCTAC,0.255
18,GATGATTGTTCTCCCAGCTGATGAATTGCAATAATCGAGTAAACAAATTTTCCTAATCTTTCTGTTCAAGCGCCATCTAC,1.91
19,GATGATTGTTCTCCCAGCTGATGAATTCCCCGGCTCGAGTAAACAAATTTTCCTAATCTTTCTGTTCAAGCGCCATCTAC,0.131
20,GATGATTGTTCTCCCAGCTGATGAATTCCTCTAATCGAGTAAACAAATTTTCCTAATCTTTCTGTTCAAGCGCCATCTAC,0.265
21,GATGATTGTTCTCCCAGCTGATGAATTTTAGTGCTCGAGTAAACAAATTTTCCTAATCTTTCTGTTCAAGCGCCATCTAC,0.557

row,Sequence,binding signal (RPM ratio (pull-down/input))
1,GATGATTGTTCTCCCAGCTGATGAATTCATCTTATCGAGTAAACAAATTTTCCTAATCTTTCTGTTCAAGCGCCATCTAC,0.408
2,GATGATTGTTCTCCCAGCTGATGAATTCGTCCACTCGAGTAAACAAATTTTCCTAATCTTTCTGTTCAAGCGCCATCTAC,0.485
3,GATGATTGTTCTCCCAGCTGATGAATTTATCTGCTCGAGTAAACAAATTTTCCTAATCTTTCTGTTCAAGCGCCATCTAC,0.769
4,GATGATTGTTCTCCCAGCTGATGAATTAGCCTGTTCGAGTAAACAAATTTTCCTAATCTTTCTGTTCAAGCGCCATCTAC,0.655
5,GATGATTGTTCTCCCAGCTGATGAATTATGGCCATCGAGTAAACAAATTTTCCTAATCTTTCTGTTCAAGCGCCATCTAC,1.61
6,GATGATTGTTCTCCCAGCTGATGAATTCCGTTCTTCGAGTAAACAAATTTTCCTAATCTTTCTGTTCAAGCGCCATCTAC,0.554
7,GATGATTGTTCTCCCAGCTGATGAATTTTTTAGATCGAGTAAACAAATTTTCCTAATCTTTCTGTTCAAGCGCCATCTAC,0.177
8,GATGATTGTTCTCCCAGCTGATGAATTTTAGGCCTCGAGTAAACAAATTTTCCTAATCTTTCTGTTCAAGCGCCATCTAC,0.444
9,GATGATTGTTCTCCCAGCTGATGAATTAAGAGGATCGAGTAAACAAATTTTCCTAATCTTTCTGTTCAAGCGCCATCTAC,0.247
10,GATGATTGTTCTCCCAGCTGATGAATTGGCCGCATCGAGTAAACAAATTTTCCTAATCTTTCTGTTCAAGCGCCATCTAC,0.96
11,GATGATTGTTCTCCCAGCTGATGAATTCTAAGGCTCGAGTAAACAAATTTTCCTAATCTTTCTGTTCAAGCGCCATCTAC,0.248
12,GATGATTGTTCTCCCAGCTGATGAATTGATTCGTTCGAGTAAACAAATTTTCCTAATCTTTCTGTTCAAGCGCCATCTAC,0.437
13,GATGATTGTTCTCCCAGCTGATGAATTAGGAACCTCGAGTAAACAAATTTTCCTAATCTTTCTGTTCAAGCGCCATCTAC,0.28
14,GATGATTGTTCTCCCAGCTGATGAATTGCCCCCTTCGAGTAAACAAATTTTCCTAATCTTTCTGTTCAAGCGCCATCTAC,0.413
15,GATGATTGTTCTCCCAGCTGATGAATTCCTGCGCTCGAGTAAACAAATTTTCCTAATCTTTCTGTTCAAGCGCCATCTAC,0.4
16,GATGATTGTTCTCCCAGCTGATGAATTGGTCGCTTCGAGTAAACAAATTTTCCTAATCTTTCTGTTCAAGCGCCATCTAC,0.51
17,GATGATTGTTCTCCCAGCTGATGAATTGTCGTTATCGAGTAAACAAATTTTCCTAATCTTTCTGTTCAAGCGCCATCTAC,1.18
18,GATGATTGTTCTCCCAGCTGATGAATTCTGACCCTCGAGTAAACAAATTTTCCTAATCTTTCTGTTCAAGCGCCATCTAC,0.389
19,GATGATTGTTCTCCCAGCTGATGAATTCTATTAATCGAGTAAACAAATTTTCCTAATCTTTCTGTTCAAGCGCCATCTAC,0.561
20,GATGATTGTTCTCCCAGCTGATGAATTGTGGCAATCGAGTAAACAAATTTTCCTAATCTTTCTGTTCAAGCGCCATCTAC,3.16
21,GATGATTGTTCTCCCAGCTGATGAATTGCATCATTCGAGTAAACAAATTTTCCTAATCTTTCTGTTCAAGCGCCATCTAC,5.15

row,Sequence,binding signal (RPM ratio (pull-down/input))
1,GATGATTGTTCTCCCAGCTGATGAATTAGTTATATCGAGTAAACAAATTTTCCTAATCTTTCTGTTCAAGCGCCATCTAC,1.36
2,GATGATTGTTCTCCCAGCTGATGAATTCGGGATCTCGAGTAAACAAATTTTCCTAATCTTTCTGTTCAAGCGCCATCTAC,0.284
3,GATGATTGTTCTCCCAGCTGATGAATTCCCTTGGTCGAGTAAACAAATTTTCCTAATCTTTCTGTTCAAGCGCCATCTAC,0.225
4,GATGATTGTTCTCCCAGCTGATGAATTGATTCAATCGAGTAAACAAATTTTCCTAATCTTTCTGTTCAAGCGCCATCTAC,0.312
5,GATGATTGTTCTCCCAGCTGATGAATTTCTCCATTCGAGTAAACAAATTTTCCTAATCTTTCTGTTCAAGCGCCATCTAC,0.288
6,GATGATTGTTCTCCCAGCTGATGAATTAAGGATTTCGAGTAAACAAATTTTCCTAATCTTTCTGTTCAAGCGCCATCTAC,0.252
7,GATGATTGTTCTCCCAGCTGATGAATTAGCCCGCTCGAGTAAACAAATTTTCCTAATCTTTCTGTTCAAGCGCCATCTAC,0.269
8,GATGATTGTTCTCCCAGCTGATGAATTCGGAAACTCGAGTAAACAAATTTTCCTAATCTTTCTGTTCAAGCGCCATCTAC,0.585
9,GATGATTGTTCTCCCAGCTGATGAATTTCATACATCGAGTAAACAAATTTTCCTAATCTTTCTGTTCAAGCGCCATCTAC,0.449
10,GATGATTGTTCTCCCAGCTGATGAATTCATGTTCTCGAGTAAACAAATTTTCCTAATCTTTCTGTTCAAGCGCCATCTAC,1.06
11,GATGATTGTTCTCCCAGCTGATGAATTCAGAGCATCGAGTAAACAAATTTTCCTAATCTTTCTGTTCAAGCGCCATCTAC,0.65
12,GATGATTGTTCTCCCAGCTGATGAATTAGAATCGTCGAGTAAACAAATTTTCCTAATCTTTCTGTTCAAGCGCCATCTAC,0.402
13,GATGATTGTTCTCCCAGCTGATGAATTTGTACGATCGAGTAAACAAATTTTCCTAATCTTTCTGTTCAAGCGCCATCTAC,0.674
14,GATGATTGTTCTCCCAGCTGATGAATTGCAGTATTCGAGTAAACAAATTTTCCTAATCTTTCTGTTCAAGCGCCATCTAC,1.7
15,GATGATTGTTCTCCCAGCTGATGAATTGAACCATTCGAGTAAACAAATTTTCCTAATCTTTCTGTTCAAGCGCCATCTAC,0.512
16,GATGATTGTTCTCCCAGCTGATGAATTAACCAGGTCGAGTAAACAAATTTTCCTAATCTTTCTGTTCAAGCGCCATCTAC,0.14
17,GATGATTGTTCTCCCAGCTGATGAATTTATGTGTTCGAGTAAACAAATTTTCCTAATCTTTCTGTTCAAGCGCCATCTAC,4.15
18,GATGATTGTTCTCCCAGCTGATGAATTAGCCACGTCGAGTAAACAAATTTTCCTAATCTTTCTGTTCAAGCGCCATCTAC,0.654
19,GATGATTGTTCTCCCAGCTGATGAATTCTCAGCCTCGAGTAAACAAATTTTCCTAATCTTTCTGTTCAAGCGCCATCTAC,0.345
20,GATGATTGTTCTCCCAGCTGATGAATTCTTAAACTCGAGTAAACAAATTTTCCTAATCTTTCTGTTCAAGCGCCATCTAC,0.267
21,GATGATTGTTCTCCCAGCTGATGAATTATGTCATTCGAGTAAACAAATTTTCCTAATCTTTCTGTTCAAGCGCCATCTAC,4.63
